Test results published in the BET-seq Pho4 binding data (Le et al. 2018).
The list shows a part of the results. Values were computed here from the reads of four pooled replicates and scatter widely.

The sequences below were run against T1, Pho4 (S. cerevisiae) (UniProt P07270) (assay: relative binding free energy (BET-seq); higher = weaker binding). Conditions: reference: library average.
T1 sequence: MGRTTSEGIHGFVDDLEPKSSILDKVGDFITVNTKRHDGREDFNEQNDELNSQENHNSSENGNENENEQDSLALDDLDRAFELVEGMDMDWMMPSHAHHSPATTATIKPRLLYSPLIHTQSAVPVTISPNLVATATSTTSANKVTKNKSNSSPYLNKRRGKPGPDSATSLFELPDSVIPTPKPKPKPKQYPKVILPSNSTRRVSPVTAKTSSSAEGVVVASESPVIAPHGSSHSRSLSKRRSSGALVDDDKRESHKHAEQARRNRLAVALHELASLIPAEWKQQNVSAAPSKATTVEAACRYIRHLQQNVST

Sequence	relative binding free energy [kcal/mol]
TCGATCACGTGAGGGG	0.23
TGAGTCACGTGTAGAG	0.13
ATTGCCACGTGGTAGG	-0.22
TGGTTCACGTGCGTGC	0.24
CGGAGCACGTGGGATT	-0.01
GCTTGCACGTGGTGAT	0.01
TGGCACACGTGTGGAT	0.04
TAGTTCACGTGGGCGG	0.3
GGTTCCACGTGGTATG	0.1
CAGTTCACGTGAAGGG	0.35
CTTGACACGTGAGGGT	0.19
AGGCTCACGTGAGGTT	0.44
TTTGACACGTGGGATT	0.15
AGTTTCACGTGAATTG	0.37
GGTCACACGTGGTGTT	0.11
GGGGGCACGTGCGTCT	-0.2
TTGGTCACGTGGCGGA	0.01
CAATGCACGTGAGAGT	0.34
TCGGCCACGTGAGGGG	0.08
TATAGCACGTGATGGT	0.22
CTTGTCACGTGTACGT	0.2
AACGGCACGTGGTTAG	-0.06
AGGTGCACGTGTAAGT	0.06

Sequence	relative binding free energy [kcal/mol]
GTACGCACGTGGTTGC	-0.01
AATTCCACGTGGAGGT	0.16
GTGAGCACGTGCGGGC	-0.14
GGGCTCACGTGCGGTT	0.28
ATAGTCACGTGTGTAT	0.05
CGGATCACGTGAATGG	0.4
AGGTTCACGTGTATAA	0.14
TGAATCACGTGGTTGT	0.14
CGTTCCACGTGTGGTT	0.05
TATATCACGTGCGTTT	0.17
GTTTTCACGTGATAGC	0.29
CTTAGCACGTGTGATA	0.07
TGCTGCACGTGTTTTA	0.04
GACGTCACGTGTGTTG	0.25
CTTGTCACGTGGGTAT	0.03
GTAATCACGTGGTATA	0.12
AAGTACACGTGTGGCG	0.22
GTGCGCACGTGCAGTG	-0.02
GGATTCACGTGGTACT	0.36
GGTCTCACGTGTTTTG	0.29
AGTTGCACGTGAAAGG	0.1
TAGTACACGTGTTCGG	0.05
ATTGGCACGTGCGTTT	-0.19

Sequence	relative binding free energy [kcal/mol]
GAGTACACGTGATGGC	0.28
TTGGGCACGTGTGCGG	-0.1
AGGTACACGTGTCATG	0.03
ATTATCACGTGTCGGA	0.18
TGTGACACGTGATATT	0.04
CGAGGCACGTGGTTGC	-0.15
TTGGTCACGTGACGTG	0.2
AGTTTCACGTGACTAG	0.39
GTTGGCACGTGCGTGA	-0.08
GGTAGCACGTGTTCTT	-0.03
GGCTTCACGTGTATAG	0.3
GATAGCACGTGAGGGC	0.47
AAATTCACGTGGGGGG	0.11
AAGTTCACGTGGTAAA	0.16
GGGTCCACGTGGGGGG	0
AGGTACACGTGGGGCT	0.01
GTGTACACGTGCGTTG	0.08
GTATTCACGTGATGCT	0.17
AGGGGCACGTGAAGGG	0.16
TGTTACACGTGGCGGG	0.14
CTTTACACGTGGAGGT	0.03
GAATTCACGTGTATAT	0.47
GGTCTCACGTGCGGTT	0.16

Sequence	relative binding free energy [kcal/mol]
GACTGCACGTGGGTAG	-0.12
TGTTTCACGTGATGAC	0.43
TCTTGCACGTGGGACT	-0.01
TGCGTCACGTGGGGGG	-0.01
TGGGTCACGTGGGCAC	-0.02
GATGGCACGTGTTTGA	0.12
TTGTGCACGTGATGAT	0.04
GTATGCACGTGCTATT	-0.02
ATCTTCACGTGGGCGT	0.13
TTTGGCACGTGTGGCG	0.04
GGGGGCACGTGGGGAA	-0.09
CGGGGCACGTGTATAG	-0.12
GCAGGCACGTGAGTGG	0.11
TGGGCCACGTGAAGGA	0.19
GTGATCACGTGATGTA	0.18
TAGTACACGTGAATTG	0.44
AATGACACGTGGGGGC	-0.16
AGTTTCACGTGAACGG	0.43
CGTAGCACGTGGTAGG	-0.09
TTCCTCACGTGGTAGG	0.15
TGATGCACGTGCTGAG	-0.1
GTAATCACGTGTGAGA	0.2
AGAACCACGTGTGGGG	0

Sequence	relative binding free energy [kcal/mol]
AATTACACGTGTTAAT	0.15
AGTTGCACGTGGAGTA	-0.05
GGGAACACGTGTGTGA	0.16
AATGTCACGTGTAGTT	0.16
ATGGGCACGTGTCTGT	-0.24
GGGTTCACGTGTCTTT	0.19
ACGAGCACGTGTGAGT	0.01
AAGGACACGTGGTGCG	-0.07
TAGTTCACGTGTAAGT	0.22
GCTGGCACGTGGATGG	-0.08
TAAATCACGTGTATGA	0.06
TCTGTCACGTGTTGAG	0.17
AATGGCACGTGCAGTG	-0.07
TTTTTCACGTGGGTGC	0.19
ATAAACACGTGATGGG	0.1
AGTAGCACGTGGCTTG	-0.21
TAGGGCACGTGCGTGC	-0.24
AGCTGCACGTGGTTGA	-0.09
CAGGTCACGTGATTGG	0.18
CGGTCCACGTGAGGTT	0.37
GTATTCACGTGTGTTT	0.34
AGTTTCACGTGGAGCA	0.25
TTTTGCACGTGTGGAA	0.01
